Data taken from PubChem BioAssay AID504832 (National Center for Advancing Translational Sciences (NCATS), 2011).
In all, about 310,000 compounds went through this assay and about 18,000 (5.8%) were called active. Inconclusive results, whose numbers are uncertain, are shown with a selection of clear calls. Calls follow the shape of the dose curve; as a rule, active = well fitted inhibition curve with a large enough effect; inconclusive = small, poorly fitted or top-dose-only effect, or another doubt; inactive = no such curve, though single readings can be large or run the other way. No potency is given beside an inconclusive call; the fits are too rough.

Test: Primary qHTS for delayed death inhibitors of the malarial parasite plastid, 48 hour incubation
Conditions: P. falciparum luciferase growth in erythrocytes; series mostly up to 28.7 µM
Procedure, shortened: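 Luminescence readout; reporter = integrated firefly luciferase in P. falciparum. RBC culture at 2% hematocrit, 0.1% parasitemia final, 37 C/5% CO2; decreased signal taken as growth inhibition.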
Potency is read from the fitted curve at half-maximal effect; tags tell the direction and shape of the fitted curve.

| SMILES | Potency |
| --- | --- |
| COc1cccc(C(=O)NC(C)CCc2ccccc2)c1 (configuration not stated) | inactive |
| CN1CCCC(OC(=O)c2ccc3c(c2)OCCO3)C1 (configuration not stated) | inactive |
| Cn1c(N2CCN(C(=O)Nc3ccc(C(F)(F)F)cc3)CC2)nc2ccccc21 | inconclusive [inhibitor, partial curve, poor fit] |
| COc1cc(/C=C2\SC(=S)N(CCC(=O)Nc3cccc(O)c3)C2=O)cc(OC)c1OC | inconclusive [inhibitor, full curve, poor fit] |
| CC(C)Cn1nc(C(=O)N2CCc3ccccc32)c2ccccc2c1=O | inconclusive [inhibitor, partial curve, poor fit] |
| COc1ccc(C2c3ccc(O)cc3Oc3ncn(Cc4ccccc4)c(=N)c32)cc1OC (configuration not stated) | active: 11.7 µM |
| CCN(CC)CCCn1c(C)cc2c(c1=O)C(c1ccccc1)C(C#N)=C(N)O2 (configuration not stated) | inconclusive [inhibitor, full curve, poor fit] |
| CC(NC(=O)Cn1ccsc1=N)C12CC3CC(CC(C3)C1)C2 (configuration not stated) | inconclusive [inhibitor, partial curve, poor fit] |
| COc1ccc(/C=C2\SC(=S)N(CCC(=O)N(CCO)Cc3ccccc3)C2=O)cc1OC | inconclusive [inhibitor, single point] |
| COc1cc(/C=C2/CCC/C(=C\c3cc(O)c(OC)c(Cl)c3)C2=O)cc(Cl)c1O | inconclusive [inhibitor, partial curve] |
| Cc1ccc(NC(=O)CN(C)C(=O)COC(=O)COc2ccc(C#N)cc2)cc1 | inactive |
| COc1ccc(C(=O)Nc2ccc(NC(C)=O)cc2)cc1S(=O)(=O)N(C)Cc1ccccc1 | inconclusive [inhibitor, partial curve, poor fit] |
| Cc1ccc(C(=O)OCC(=O)c2c[nH]c3ccccc23)cc1S(=O)(=O)N1CCOCC1 | inconclusive [inhibitor, single point] |
| COc1cccc(NC(=O)CSc2nc3ccccc3c(=O)n2CCCC(=O)NCCCN2CCOCC2)c1 | inconclusive [inhibitor, single point] |
| COc1ccc(/C=C/CN2CCN(Cc3ccccc3)C(CCO)C2)cc1 (configuration not stated) | inconclusive [inhibitor, single point] |
| CCN(CC)S(=O)(=O)c1ccc(N2CCOCC2)c(NC(=O)COc2ccc(Cl)cc2)c1 | inconclusive [inhibitor, partial curve] |
| COc1ccc(NC(=O)CCn2cccc2)cc1 | inconclusive [inhibitor, single point] |
